From ChEMBL document CHEMBL4888484, “Replenishing the malaria drug discovery pipeline: Screening and hit evaluation of the MMV Hit Generation Library 1 (HGL1) against asexual blood stage Plasmodium falciparum ,using a nano luciferase reporter read-out” (2022) come the findings set out here.

This test deals with Plasmodium falciparum. Nature of the test: Primary screen in NF54 nanoGlo assay, in single point, at 2uM, 72h; a lower Z score goes with more inhibition. The following applies: timepoint 72 hour. The class given is functional, Erythrocyte.

The campaign covered roughly 150,000 compounds. About 540 (0.36%) showed an effect of 50% or more. This is one part of the list.

A word on the % Inhibition: it is the relative decrease from the control value, in per cent. `COc1ccc(CNC(=O)Nc2ccc3nc(N4CCN(C)CC4)cc(C)c3c2)cc1OC`: the “% Inhibition” value is -2% and the Z score was found to be 0.19.

For `O=C(Nc1nc2c(s1)CN(C(=O)Cn1cnc3ccccc3c1=O)CC2)[C@@H]1CCCO1`, the “% Inhibition” value is recorded as -12% and the Z score came out at 1.74.

Consider `CN(C)C(=O)c1cncc(NCc2ccc3nsnc3c2)n1`, for which the “% Inhibition” value is recorded as -8% and the Z score was found to be 0.88.

As to `CCN(CC)S(=O)(=O)c1csc(C(=O)Nc2ccon2)c1`, the “% Inhibition” value is on record as -21% and the Z score was determined as 2.48.

`CCNC(=O)[C@H]1CCN(S(=O)(=O)c2cc(-c3cc(C(F)(F)F)on3)ccc2C)C1`: the “% Inhibition” value turned out to be 6% and the Z score is -0.9.

In the case of `O=C([C@@H]1CC[C@H](C(=O)N2CCOC3CCCC32)C1)N1CCOC2CCCC21` (stereo partly specified), the “% Inhibition” value was -5% and the Z score was determined as 0.73.

In the case of `CCc1oc2c(NC(=O)N3C[C@H]4CC[C@@H](C3)N(C)C4=O)cccc2c1C`, the “% Inhibition” value is on record as -9% and the Z score is 1.59.

On to `COc1cc(C(=O)Nc2ccc(Oc3cccc4[nH]ccc34)nc2)cc2c1OCCCO2`, for which, under “2 µM”, the “% Inhibition” value is 4% and the Z score is recorded as -1.04.

In the case of `CN(C)[C@H]1CCC[C@@H]1Nc1ncnc2ccccc12`, the “% Inhibition” value came out at 4% and the Z score is listed as -0.67.

For `O=S(=O)(c1cccnc1N1CCC[C@H]1c1cccs1)N1CCCCC1`, the “% Inhibition” value is -9% and the Z score is 0.91.

As for `COc1ccc2nc(O)c(C(=O)Nc3ccc4c(c3F)CCNC4)cc2c1`, the “% Inhibition” value amounted to 99% and the Z score is on record as -18.01.

Consider `O=C1O[C@H]2CN(c3nccs3)C[C@H]2N1CCCN1CCOCC1`, for which the “% Inhibition” value was found to be 0% and the Z score is recorded as -0.03.

`COc1ccc(OCc2nc(C)cc(=O)n2CC(=O)Nc2cc(F)cc(F)c2)cc1`: the “% Inhibition” value is listed as -6% and the Z score turned out to be 0.89.

On to `COCCN1C(=O)[C@@H]2CC[C@H]1CN(C(=O)CCn1nc(C)c(C)c1C)C2`, for which the “% Inhibition” value was -3% and the Z score was determined as 0.39.

As for `CCn1cc(NC(=O)c2ccc3nccc(C)c3c2)cn1`, the “% Inhibition” value is on record as -9% and the Z score is listed as 1.32.

In the case of `CC(NC(=O)[C@H]1CCC(=O)N1Cc1ccccc1)c1ccccc1` (stereo partly specified), the “% Inhibition” value is recorded as -12% and the Z score is given as 1.37.

`Cn1cc2ncn(Cc3cc(C4CC4)[nH]n3)c(=O)c2n1`: the “% Inhibition” value was -15% and the Z score is 1.65.

Regarding `Cc1cccc(NC(=O)Cn2c(C)ncc(C(=O)NC3CCCC3)c2=O)c1C`, the “% Inhibition” value was -11% and the Z score is given as 1.73.

In the case of `COc1cc(F)c(NCc2csc(C3CC3)n2)cc1OC`, the “% Inhibition” value is 35% and the Z score is on record as -4.68.

Turning to `O=C(CN1C(=O)COc2ccc(Cl)cc21)Nc1cnccc1O`, the “% Inhibition” value is reported as -7% and the Z score stood at 0.63.

Consider `COc1ccc(-c2cc(N3CC[C@H](NC(=O)c4cccc(Br)c4)C3)[nH]n2)cc1`, for which the “% Inhibition” value is -12% and the Z score worked out at 1.24.

In the case of `CC(C)Cn1ncc2ncccc2c1=O`, the “% Inhibition” value was 6% and the Z score is given as -0.93.

Turning to `CCn1ncc(C(=O)N2CC[C@H](c3nc(N(C)C)ncc3C(=O)NCCOC)C2)c1C`, the “% Inhibition” value is -3% and the Z score is 0.41.

Consider `Cc1ccc2oc(NCC3CCCC34NC(=O)NC4=O)nc2c1` (stereo unspecified), for which the “% Inhibition” value amounted to 14% and the Z score is -1.64.

Take `CC(C)(c1ccccc1)c1ccc2oc(-c3ccc(-c4nc5cc(C(C)(C)c6ccccc6)ccc5o4)s3)nc2c1`: the “% Inhibition” value is -10% and the Z score is 2.03.

For `O=C(NC[C@H]1COCCO1)c1ccc(OCC(=O)N2CCCCC2)cc1`, the “% Inhibition” value is -5% and the Z score was 0.85.

Turning to `COC1CC(c2nc(C)no2)N(CCC(C)c2ccccc2)C1` (stereo unspecified), the “% Inhibition” value is given as 1% and the Z score is -0.14.

In the case of `Clc1cccnc1OCc1cncs1`, the “% Inhibition” value is recorded as -7% and the Z score turned out to be 0.88.

In the case of `c1ccc(Cc2ccc(OCCOCCN3CCOCC3)cc2)cc1`, the “% Inhibition” value is given as -3% and the Z score was determined as 0.61.

For `O=C(c1ccncc1F)N1CCCCCO1`, the “% Inhibition” value is listed as -17% and the Z score is 1.74.

On to `CCCCOc1ccccc1CN1CC[C@H](O)C1`, for which the “% Inhibition” value is -3% and the Z score turned out to be 0.39.

Regarding `Nc1c(C(=O)NCc2ccc3c(c2)OCO3)sc2nc(-c3ccc4c(c3)OCO4)ccc12`, the “% Inhibition” value was -4% and the Z score is 0.52.

For `CC(C)COCCCNS(=O)(=O)C1CCOC1C` (stereo unspecified), the “% Inhibition” value was -11% and the Z score stood at 1.32.

Turning to `Cc1ccc(S(=O)(=O)N2CCC3(CC2)N[C@@H](C(C)C)C(=O)N3Cc2ccc3c(c2)OCO3)cc1`, the “% Inhibition” value is -9% and the Z score was 1.53.

With `CCc1ccc(C2=NN([C@H]3CCOC(C)(C)C3)C(=O)CC2)cc1`, the “% Inhibition” value was found to be 0% and the Z score is -0.04.

Take `COc1ccc(C2=C(C)C(N3CCN(Cc4ccccc4)CC3)=NS2(=O)=O)cc1`: the “% Inhibition” value worked out at 0% and the Z score turned out to be 0.02.

With `CO[C@H]1CCOC[C@@H]1NC(=O)c1ccccc1-c1ccccc1`, the “% Inhibition” value is reported as -6% and the Z score turned out to be 0.76.

Turning to `O=C(N[C@H]1CCCN(CC(F)(F)F)C1)c1cc(Br)ccc1O`, the “% Inhibition” value was -9% and the Z score is 1.06.

Take `O=C(CCc1nnc(CCCCc2ccccc2)o1)N1CCC[C@H]1CO`: the “% Inhibition” value came to 5% and the Z score is listed as -0.71.

For the compound `CC1CCN(S(=O)(=O)c2ccc3c(ccc(=O)n3CC(=O)NCc3ccccc3)c2)CC1`, the “% Inhibition” value is -4% and the Z score is on record as 0.79.

Regarding `CN(Cc1ccccc1)C(=O)c1cc(NC(=O)C2CCC2)ccc1N1CCN(C(=O)C2CCCC2)CC1`, the “% Inhibition” value is reported as -4% and the Z score worked out at 0.46.

As to `CCS(=O)(=O)CC(=O)N1CCC[C@H]1c1nc2ccccc2s1`, the “% Inhibition” value was 10% and the Z score is -1.3.

`Cc1ncsc1CN1CC[C@@]2(CCCN(C3CCCCC3)C2=O)C1`: the “% Inhibition” value was found to be 0% and the Z score is reported as 0.07.

For `O=C(COC(c1ccccc1)c1ccccc1)Nc1cccnc1`, the “% Inhibition” value was -9% and the Z score was found to be 1.12.

Regarding `Cc1cccc(C(=O)N2CCCCC[C@H]2c2noc(-c3cnn(C)c3)n2)n1`, the “% Inhibition” value was -6% and the Z score is on record as 0.56.

Regarding `CN(C)[C@H]1CCN(c2nc3c(c(C(F)(F)F)n2)CCCC3)C[C@H]1CCC(=O)O`, the “% Inhibition” value is on record as -7% and the Z score is 1.28.

Turning to `COc1c2ccc(C(=O)NC[C@H]3CCCN3c3ccccc3)cc2nn1C`, the “% Inhibition” value is given as -9% and the Z score turned out to be 1.7.

With `O=C(NC1CC1)c1cc(O)nc2c(Cl)cccc12`, the “% Inhibition” value is recorded as -10% and the Z score is 1.78.

As for `CC(C)[C@H](Oc1cccc(Cl)c1)C(=O)N(C)Cc1c[nH]cn1`, the “% Inhibition” value was found to be 9% and the Z score is given as -1.77.

With `NC(=O)C1(NC(=O)c2cc(-c3ccccc3F)n[nH]2)CCCC1`, the “% Inhibition” value is reported as -8% and the Z score is 1.46.

In the case of `CCn1c(=O)sc2cc(NC(=O)c3ccc4c(c3)OCO4)ccc21`, the “% Inhibition” value is listed as -3% and the Z score came out at 0.38.

For `CC(C)Cn1ccnc1NC(=O)c1ccc(F)cc1`, the “% Inhibition” value is given as -17% and the Z score worked out at 2.73.

Turning to `CCCCN(CCCC)C(=O)c1cn(CCOC)c(C)cc1=O`, the “% Inhibition” value is listed as -3% and the Z score was 0.43.
